Assay results from PubChem BioAssay AID485297 (National Center for Advancing Translational Sciences (NCATS), 2010).
About 9,100 (2.8%) of roughly 320,000 compounds were called active. Inconclusive results, whose numbers are uncertain, are shown with a selection of clear calls. Calls come from the whole dose curve; as a rule, active = well fitted activation curve with a large enough effect; inconclusive = small, poorly fitted or top-dose-only effect; inactive = no such curve, though single readings can be large or run the other way. Potencies of inconclusive entries are left out as doubtful fits.

Assay: qHTS Assay for Rab9 Promoter Activators; note: nearly all actives have a fitted effect of over 60% in size; for activation, negative = inhibition: % of control where 0% means no effect
Conditions: Huh7 Rab9 promoter-luciferase reporter, luminescence, 24 h; series mostly up to 9.22 µM; activation, negative = inhibition: at the top concentration
Method in brief: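 Huh7 cells stably carrying a Rab9 promoter-luciferase reporter, 1500 cells per well in OP-MEM I with 10% FBS, treated with compound 24 hours at 37C. Luciferase activity read by luminescence after 10 minutes with Amplite reagent.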
Potency is the fitted concentration of half-maximal effect; tags give direction and shape of the fitted curve.

SMILES | Potency | activation, negative = inhibition
CCCC1(C)Nc2ccccc2-c2nc3ccccc3n21 (stereo not given) | inconclusive [activator, single point] | –
COC(=O)c1ccc(CSc2nc3c(cnn3-c3ccc(C)c(C)c3)c(=O)[nH]2)o1 | – | inactive: -1.04%
COc1ccc(OCc2cc(C(=O)NCc3cccc(C)n3)no2)c(Cl)c1 | inconclusive [activator, partial curve] | –
O=C(Nc1ccc(CN2CCOCC2)cc1)c1ccc(Cl)cc1 | inconclusive [activator, partial curve] | –
COc1ccc(NS(=O)(=O)c2cccc(C(=O)NCc3ccco3)c2)cc1 | inconclusive [activator, single point] | –
CC(C)(C)NC(=O)C(=O)NN=C1CCCCCCC1 | inconclusive [activator, single point] | –
N#C/C(=C\c1ccc(Cl)cc1)c1n[nH]c(Cn2cncn2)n1 | – | inactive: -5.47%
O=C(N/N=C/c1ccccc1)c1ccc(OCc2ccccc2)cc1 | – | inactive: 15.3%
Cc1ccc(-c2cc(C(F)F)n3ncc(C(=O)N4CCc5ccccc54)c3n2)cc1 | – | inactive: -27.1%
O=C(c1ccccc1)c1c[nH]c2cc3c(cc2c1=O)OCCO3 | inconclusive [activator, single point] | –
CCc1ccc(OCc2ccc(C(=O)NCc3ccccn3)o2)cc1 | inconclusive [activator, partial curve] | –
CC(=O)NCCc1nc2cc(NC(=O)c3ccc([N+](=O)[O-])cc3)ccc2n1C | inconclusive [activator, single point] | –
COc1ccc(-c2nsc(SCC(=O)NCC3CCCO3)n2)cc1 (stereo not given) | inconclusive [activator, single point] | –
CCOC(=O)c1c(NC(=O)CSc2cccc[n+]2[O-])sc(C(=O)Nc2ccccc2)c1C | inconclusive [activator, partial curve] | –
CCOC(=O)c1cc2c(C)n(-c3ccc(C)cc3)c(C)c2ccc1=O | inconclusive [activator, partial curve] | –
COC(=O)Cc1csc(NC(=O)c2ccc3ncsc3c2)n1 | inconclusive [activator, single point] | –
CC(C)Cn1nc(C(=O)Nc2cccc(S(=O)(=O)N3CCCC3)c2)c2ccccc2c1=O | – | inactive: 4.41%
Cc1ccccc1N(CC(=O)NC1CCCC1)C(=O)c1oc(C(C)(C)C)cc1C | – | inactive: -2.23%
COc1ccc(-n2nc(C(=O)NCC(=O)N3CCC(C)CC3)c3ccccc3c2=O)c(OC)c1 | inconclusive [activator, partial curve] | –
O=C(Nc1ccc(Cl)cc1)Nc1ccc(Br)cn1 | inconclusive [activator, single point] | –
COc1cc(SC)ccc1C(=O)Nc1nc(C)cc(C)n1 | inconclusive [activator, partial curve] | –
O=C(Nc1ccccc1O)c1ccc(NS(=O)(=O)c2cccc3cccnc23)cc1 | inconclusive [activator, full curve, poor fit] | –
O=C(NCc1cccc(C(F)(F)F)c1)c1cccc(S(=O)(=O)NCc2ccccc2)c1 | inconclusive [activator, single point] | –
Cc1ccc2[nH]c(CNC(=O)C3CCCCC3)cc2c1 | inconclusive [activator, partial curve] | –
CCCCCCCc1ccc(-c2ccc(O)cc2)nc1 | active: 3.16 µM | –

SMILES | Potency | activation, negative = inhibition
Cc1cc(N(CCO)CCO)ccc1N=Nc1cc(F)ccc1F | inconclusive [activator, partial curve] | –
O=C(Nc1nc(-c2ccccn2)cs1)C1CC1 | inconclusive [activator, partial curve] | –
O=[N+]([O-])c1ccc(/C=C/c2ccncc2)cc1 | inconclusive [activator, partial curve] | –
CN1C(=C2C(=O)OC(C)(C)OC2=O)Sc2ccccc21 | active: 2.51 µM | –
COc1ccc(C(=O)Nc2ccc3ncccc3c2)cc1 | active: 0.282 µM | –
Cn1c(CCNC(=O)c2cc(COc3ccc(F)c(F)c3)on2)nc2ccccc21 | inconclusive [activator, partial curve] | –
Cc1ccc(/C=C/c2nc3ccccc3s2)s1 | inconclusive [activator, single point] | –
COc1cccc(C(=O)Nc2nc3c(s2)CN(C)CC3)c1 | inconclusive [activator, partial curve] | –
COc1ccc(N2CCN(C(=O)CN(C)S(=O)(=O)c3cnc[nH]3)CC2)cc1 | – | inactive: -2.57%
CCOC(=O)C1(CCCc2ccccc2)CCN(C(=O)c2cnc(C)cn2)CC1 | – | inactive: -15.7%
O=C(N/N=C/c1ccc(OC2CSC2)cc1)c1ccccc1 | active: 2.24 µM | –
Clc1ccccc1Nc1nc2ccccc2o1 | active: 0.794 µM | –
COc1ccc2c(=O)c(C(=O)NCCc3ccc(OC)c(OC)c3)c[nH]c2c1 | – | inactive: -1.69%
CC(=O)c1cccc(NC(=O)C2CCN(C(=O)c3cccs3)CC2)c1 | – | inactive: -10.4%
COc1ccc(/C=C2\SC(=O)N(CCC(=O)NC3CCS(=O)(=O)C3)C2=O)cc1 (stereo not given) | active: 2.51 µM | –
CCN(CC)c1nc(C)nc2c1cnn2CCc1ccccc1 | inconclusive [activator, single point] | –
COc1ccc(C)cc1NC(=O)CSc1nnc(-c2ccco2)n1Cc1ccco1 | – | inactive: 2.14%
c1ccc2[nH]c(-c3nc4ccccc4[nH]3)nc2c1 | active: 0.631 µM | –
Nc1nc(-c2ccc3ccccc3c2)cs1 | active: 0.794 µM | –
CC1(C)CC(=O)C2=C(C1)O[C@@]1(c3ccsc3)Cc3cc(C#N)ccc3C2O1 | – | inactive: -2.63% [at 1.84 µM]
Cc1cccc(CSc2cn(CC(=O)N3CCOCC3)c3ccccc23)c1 | inconclusive [activator, single point] | –
COc1cccc(C2CC(=O)Nc3cc4c(cc32)OCCO4)c1OC(C)C (stereo not given) | – | inactive: -0.463%
CN1CCN(c2ccc(NC(=O)c3ccc(-c4ccccc4F)o3)cc2)CC1 | active: 1 µM | –
O=C(Nc1ccc2c(c1)CCC2)Nc1ccccc1Cl | active: 1.78 µM | –
CC(C)C1CC(=O)NC(SCC(=O)Nc2ccc(Br)cc2)=C1C#N (stereo not given) | inconclusive [activator, partial curve] | –

SMILES | Potency | activation, negative = inhibition
Cn1nc(C(F)(F)F)cc1-c1ccc(/C=C(\C#N)C(=O)c2cccc(C(F)(F)F)c2)s1 | inconclusive [activator, single point] | –
Nc1cccc2c1C(=O)N(CCOc1ccccc1F)C2=O | active: 0.355 µM | –
O=C(Nc1ccc(NC(=O)c2ccc3c(c2)OCO3)cc1)c1cccc(Cl)c1 | inconclusive [activator, single point] | –
CC(=O)Nc1ccc(NC(=O)C(C)Sc2n[nH]c(-c3ccc(C)cc3)n2)cc1 (stereo not given) | inconclusive [activator, single point] | –
Oc1c(CN2CCOCC2)cc(COCc2ccccc2)c2cccnc12 | – | inactive: -25.3%
CCOCCCNC(=O)c1ccc(Br)cc1 | inconclusive [activator, single point] | –
CCc1ccc(NC(=S)N2CCCC2)cc1 | inconclusive [activator, single point] | –
CN(C)/C=C/C(=O)c1ccc(Br)cc1 | inconclusive [activator, single point] | –
Cc1cc(NC(=O)c2ccc([N+](=O)[O-])cc2)no1 | inconclusive [activator, partial curve] | –
Cc1cccc2nc(CSCc3ccco3)cn12 | active: 2.24 µM | –
Cc1csc(NC(=O)c2cc3c(s2)-c2ccccc2OC3)n1 | inconclusive [activator, partial curve] | –
CCOC(=O)c1ccccc1NC(=O)Cn1cnc2c(nnn2-c2ccc(C)cc2)c1=O | – | inactive: 0.629%
CN(Cc1c(F)cccc1Cl)C(=O)CNC(=O)c1cccs1 | inconclusive [activator, partial curve] | –
CCOc1cccc(C(=O)Nc2ccc3c(c2)OCCO3)c1 | inconclusive [activator, single point] | –
CC(C)c1ccc2oc(-c3cc(N)ccc3O)nc2c1 | inconclusive [activator, full curve] | –
O=C(Nc1cccc(-c2cn3cccnc3n2)c1)c1ccc2c(c1)OCO2 | – | inactive: 16.9%
CCOc1ccc(OCc2ccc(C(=O)N(C)c3ccccc3)o2)cc1 | inconclusive [activator, partial curve] | –
CC1CCCN(C(=O)CNC(=O)c2sc3ccccc3c2Cl)C1 (stereo not given) | active: 2.51 µM | –
CN(C)S(=O)(=O)c1ccc(C(=O)NCCOc2ccccc2)cc1 | active: 2.82 µM | –
Cc1cc(C(=O)NNC(=O)Nc2ccc(Cl)cc2)no1 | – | inactive: -2.24%
COc1ccc(Cn2c(C3CC3)nc3ccc(NC(=O)c4cccnc4)cc3c2=O)cc1 | inconclusive [activator, partial curve] | –
CCN=c1scc(-c2ccco2)n1/N=C/c1ccc(O)cc1 | inconclusive [activator, single point] | –
CCCOc1ccc(C(=O)CCC(=O)OCC(=O)N2CC(=O)Nc3ccccc32)cc1 | – | inactive: -6.63%
COc1cccc(C(=O)Nc2nnc(SCC(=O)NC3CCCC3)s2)c1 | inconclusive [activator, partial curve] | –
Cc1cccn2cc(COc3ccc(-c4ccccc4)cc3)nc12 | inconclusive [activator, partial curve] | –
